# Experimental data published in PMC6281620.
# Amino acid sequences for entries named in this document (tags omitted). A change or cut given only in a name is not applied to a line headed by its entry. Residues count along the entry.
# UniProt P35918, residues 20-762: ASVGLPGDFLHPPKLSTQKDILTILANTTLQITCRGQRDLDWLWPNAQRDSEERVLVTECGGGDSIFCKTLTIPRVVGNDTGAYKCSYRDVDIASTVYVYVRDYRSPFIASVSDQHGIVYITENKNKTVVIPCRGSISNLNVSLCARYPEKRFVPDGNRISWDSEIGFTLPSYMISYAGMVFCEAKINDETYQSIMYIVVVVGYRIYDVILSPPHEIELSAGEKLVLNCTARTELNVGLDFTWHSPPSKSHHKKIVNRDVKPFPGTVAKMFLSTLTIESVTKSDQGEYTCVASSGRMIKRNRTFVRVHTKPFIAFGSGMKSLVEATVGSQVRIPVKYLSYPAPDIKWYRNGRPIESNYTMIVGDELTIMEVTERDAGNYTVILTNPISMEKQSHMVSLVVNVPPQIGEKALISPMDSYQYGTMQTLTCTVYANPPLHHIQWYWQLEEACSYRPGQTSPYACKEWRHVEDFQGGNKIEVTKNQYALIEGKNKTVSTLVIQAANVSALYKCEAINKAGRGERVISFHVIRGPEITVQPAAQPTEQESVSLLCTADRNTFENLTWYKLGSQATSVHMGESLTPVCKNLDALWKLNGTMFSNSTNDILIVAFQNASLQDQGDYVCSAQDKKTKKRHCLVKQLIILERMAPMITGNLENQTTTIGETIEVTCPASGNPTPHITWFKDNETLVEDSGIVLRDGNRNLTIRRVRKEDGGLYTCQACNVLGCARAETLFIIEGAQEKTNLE
# No constants are given. Whether binding was seen depends on the method and setting. Some results given as binding are weak or reduced against the parent protein; the word gives no strength. For some assays here: Where a sequence is shown, tags or fusion partners need not be part of it.
# T1: recombinant C-terminal Fbln7 fragment (Fbln7-C) (mouse) (UniProt Q501P1)
# T1 sequence: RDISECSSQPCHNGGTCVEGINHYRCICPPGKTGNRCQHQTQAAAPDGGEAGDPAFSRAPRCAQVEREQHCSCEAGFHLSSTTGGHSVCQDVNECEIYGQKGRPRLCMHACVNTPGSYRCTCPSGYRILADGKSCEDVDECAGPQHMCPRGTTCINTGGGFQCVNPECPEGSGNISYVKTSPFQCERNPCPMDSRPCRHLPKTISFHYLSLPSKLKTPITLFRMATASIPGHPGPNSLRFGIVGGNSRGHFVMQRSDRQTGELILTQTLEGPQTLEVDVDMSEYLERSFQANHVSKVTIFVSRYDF
# T2: recombinant full-length Fbln7 (Fbln7-FL) (mouse) (UniProt Q501P1)
# T2 sequence: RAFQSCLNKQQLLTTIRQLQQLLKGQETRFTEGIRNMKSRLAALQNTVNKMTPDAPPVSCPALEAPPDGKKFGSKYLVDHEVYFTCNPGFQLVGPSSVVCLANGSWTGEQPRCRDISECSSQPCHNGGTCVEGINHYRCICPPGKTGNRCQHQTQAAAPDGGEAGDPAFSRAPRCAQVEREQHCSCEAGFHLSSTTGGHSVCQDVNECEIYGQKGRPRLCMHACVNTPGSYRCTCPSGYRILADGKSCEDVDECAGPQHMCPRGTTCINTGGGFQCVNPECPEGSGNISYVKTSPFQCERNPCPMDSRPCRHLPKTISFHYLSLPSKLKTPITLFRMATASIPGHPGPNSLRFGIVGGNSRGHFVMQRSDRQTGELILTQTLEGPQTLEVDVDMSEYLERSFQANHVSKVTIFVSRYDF
# B1: recombinant C-terminal Fbln7 fragment (Fbln7-C) (domain or fragment, UniProt Q501P1 135-440)
# chain: RDISECSSQPCHNGGTCVEGINHYRCICPPGKTGNRCQHQTQAAAPDGGEAGDPAFSRAPRCAQVEREQHCSCEAGFHLSSTTGGHSVCQDVNECEIYGQKGRPRLCMHACVNTPGSYRCTCPSGYRILADGKSCEDVDECAGPQHMCPRGTTCINTGGGFQCVNPECPEGSGNISYVKTSPFQCERNPCPMDSRPCRHLPKTISFHYLSLPSKLKTPITLFRMATASIPGHPGPNSLRFGIVGGNSRGHFVMQRSDRQTGELILTQTLEGPQTLEVDVDMSEYLERSFQANHVSKVTIFVSRYDF
# B2: recombinant VEGFR1 Fc Chimera (Fc fusion, UniProt P35969 23-759)
# chain: YGSGSKLKVPELSLKGTQHVMQAGQTLFLKCRGEAAHSWSLPTTVSQEDKRLSITPPSACGRDNRQFCSTLTLDTAQANHTGLYTCRYLPTSTSKKKKAESSIYIFVSDAGSPFIEMHTDIPKLVHMTEGRQLIIPCRVTSPNVTVTLKKFPFDTLTPDGQRITWDSRRGFIIANATYKEIGLLNCEATVNGHLYQTNYLTHRQTNTILDVQIRPPSPVRLLHGQTLVLNCTATTELNTRVQMSWNYPGKATKRASIRQRIDRSHSHNNVFHSVLKINNVESRDKGLYTCRVKSGSSFQSFNTSVHVYEKGFISVKHRKQPVQETTAGRRSYRLSMKVKAFPSPEIVWLKDGSPATLKSARYLVHGYSLIIKDVTTEDAGDYTILLGIKQSRLFKNLTATLIVNVKPQIYEKSVSSLPSPPLYPLGSRQVLTCTVYGIPRPTITWLWHPCHHNHSKERYDFCTENEESFILDPSSNLGNRIESISQRMTVIEGTNKTVSTLVVADSQTPGIYSCRAFNKIGTVERNIKFYVTDVPNGFHVSLEKMPAEGEDLKLSCVVNKFLYRDITWILLRTVNNRTMHHSISKQKMATTQDYSITLNLVIKNVSLEDSGTYACRARNIYTGEDILRKTEVLVRDSEAPHLLQNLSDYEVSISGSTTLDCQARGVPAPQITWFKNNHKIQQEPGIILGPGNSTLFIERVTEEDEGVYRCRATNQKGAVESAAYLTVQGTSDKSNLE
# What was measured:
# [1] = target: T1, recombinant C-terminal Fbln7 fragment (Fbln7-C) (mouse); assay: ELISA; solid phase binding assay; 96-well dish coated with protein (1 μg/well) overnight at 4 °C; second protein in PBS (VEGF 500 pg/well, VEGFR1 and VEGFR2 10 ng/well) added for 3 hours; second protein detected by primary antibody and HRP-conjugated secondary antibody; both purified
# [2] = target: T2, recombinant full-length Fbln7 (Fbln7-FL) (mouse); assay: as above
# [3] = target: recombinant VEGFR2/Flk-1 Fc Chimera (UniProt P35918); assay: pull-down; VEGFR2 fused with IgG held on Dynabeads Protein G; Fbln7-C or VEGF added in incubation buffer (PBS and proteinase inhibitor) overnight at 4 °C; western blot; both purified
Molecule,binding [1],binding [2],binding [3]
recombinant VEGFR2/Flk-1 Fc Chimera (from UniProt P35918 20-762) (Fc fusion),binds,binds,–
B1,–,–,binds
B2,no binding (tested: 10 ng/well),no binding (tested: 10 ng/well),–
